Reference: PubChem BioAssay AID1347043 (National Center for Advancing Translational Sciences (NCATS), 2019)
Hit rate of the full screen: of about 76,000 compounds, about 1,900 (2.5%) were called active. Inconclusive results, whose numbers are uncertain, are shown with a selection of clear calls. Calls follow the shape of the dose curve; as a rule, active = well fitted inhibition curve with a large enough effect; inconclusive = small, poorly fitted or top-dose-only effect; inactive = flat fitted curve, though single readings scatter. Potencies of inconclusive entries are doubtful fits and often do not repeat.

Each molecule was assayed against Luciferin 4-monooxygenase (Photinus pyralis) (UniProt P08659) (assay: Firefly luciferase inhibition profiling of diverse chemical library using quantitative high-throughput screening). Conditions: purified P. pyralis luciferase, luminescence, biochemical; activity change, negative = inhibition: at 115 µM (top of the series) unless noted.
From the text: Firefly (Photinus pyralis) luciferase is one of the most commonly used transcriptional reporters for a number of reasons. It is considered one of the more dynamically responsive reporters - that is, responsive to changes in reporter transcription - as it requires no post-translational modifications and is enzymatically active directly after protein synthesis (Wood, 1998). Additionally, the half-life of the luciferase protein is short relative to other reporter-gene products (Wood, 1995). Whereas reporters with long half-lives potentially allow for increased signal due to accumulation of reporter-gene product, once accumulated in the cell, dynamic changes in reporter-gene expression may be difficult to detect(Fan and Wood, 2007; Almond et al., 2004). It has been shown that wild-type P. pyralis luciferase has a half-life of approximately four hours in mammalian cells (Thompson et al., 1991). Firefly luciferase reporter-gene assays are also generally considered one of the most sensitive assay types (Wood, 1995; Wood, 1998). Although light produced in a bioluminescence reaction is of lower intensity than that produced during fluorescence emission, this is offset by little to no background light inherent to luminescent assays. Thus the luciferase reporter can be expressed at much lower levels than fluorescent proteins while still providing robust signal. However, it was initially observed, in 1991, by Thompson et al., that compounds that resemble the substrates of firefly luciferase (FLuc) can act as competitive inhibitors of the enzyme, and that these compounds, upon interaction with luciferase in the cell, can actually stabilize the protein and increase its half-life. Accumulated intracellular FLuc protein can be measured as an increase in luminescence signal, upon addition of detection reagents (which contain high concentrations of FLuc substrates) commonly used in high-throughput screening. In cell-based reporter gene assays that use FLuc as the reporter gene to quantitate the potential influence of a given compound against the target biology, this apparent increase in luminescence can mistakenly be interpreted as identification of a compound that is active against the target of interest. FLuc inhibitory compounds that stabilize the FLuc protein will give an identical read-out, making it difficult to distinguish compounds that are active against the target from those active against FLuc. In summary, the results generated here constitutes a valuable resource for the scientific community and provides insight on identifying compounds with inhibitory activity for the commonly-used reporter, firefly luciferase. References: -Almond, B., Zdanovsky, A., Zdanovskaia, M., Ma, D., Stecha, P., Paguio, A., Garvin, D., and Wood, K. (2004). Introducing the Rapid Response Reporter Vectors. Promega Notes 87, 18-22. -Fan, F., and Wood, K.V. (2007). Bioluminescent assays for high-throughput screening. Assay Drug Dev Technol 5, 127-136. -Thompson, J.F., Hayes, L.S., and Lloyd, D.B. (1991). Modulation of firefly luciferase stability and impact on studies of gene regulation. Gene 103, 171-177. -Wood, K.V. (1998). The chemistry of bioluminescent reporter assays. Promega Notes 65, 14-20. -Wood, K.V. (1995). Marker proteins for gene expression. Curr Opin Biotechnol 6, 50-58.
Reagents: 50mM Tris acetate, pH 7.5; 10mM Mg acetate; 10uM D-luciferin (Sigma #L9504); 10uM ATP; 0.01% Tween-20; 0.05% BSA; 10nM P. pyralis luciferase (Sigma #L9506) Control compounds used were two known firefly luciferase inhibitors (compounds (2) and (5) in Auld et al., 2010), and DMSO. Assay Summary: Three microliters containing firefly luciferase substrates in buffer (final concentrations: 50mM Tris acetate, pH 7.5, 10mM Mg acetate, 0.01% Tween-20, 0.05% BSA, 10uM D-luciferin, and 10uM ATP) are dispensed into each well of a Greiner white, solid-bottom 1536-well format plate using a flying reagent dispenser (FRD). […]
% is scaled to controls: 0 for no effect and ±100 for the full control effect; tags tell the direction and shape of the fitted curve.
Also: nearly all actives have a fitted effect of over 65% in size.

Sequence of UniProt P08659 (P08659 whole entry, looked up): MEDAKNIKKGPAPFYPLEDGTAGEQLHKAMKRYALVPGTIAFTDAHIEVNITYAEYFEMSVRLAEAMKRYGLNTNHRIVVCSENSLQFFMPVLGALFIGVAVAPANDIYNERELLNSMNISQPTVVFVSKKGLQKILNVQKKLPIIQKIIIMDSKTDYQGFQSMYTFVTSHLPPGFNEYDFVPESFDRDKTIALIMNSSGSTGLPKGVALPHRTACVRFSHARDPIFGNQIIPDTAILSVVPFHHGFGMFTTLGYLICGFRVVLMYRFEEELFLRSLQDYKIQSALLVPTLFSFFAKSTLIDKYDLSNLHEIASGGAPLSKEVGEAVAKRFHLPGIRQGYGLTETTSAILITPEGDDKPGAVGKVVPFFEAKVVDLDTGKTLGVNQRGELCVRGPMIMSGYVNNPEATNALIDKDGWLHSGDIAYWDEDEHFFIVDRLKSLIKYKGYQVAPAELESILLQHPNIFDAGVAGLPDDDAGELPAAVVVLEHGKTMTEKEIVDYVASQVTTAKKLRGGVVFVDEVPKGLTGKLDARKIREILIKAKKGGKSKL

Row | SMILES | activity change, negative = inhibition | Potency
1 | COc1ccc(CNc2ncnc3c2CN(c2ccc(C)cc2)C(=O)N(C)C3)cc1OC | inactive: 3.7% | 
2 | CC(C)CCNC(=O)CCC1CCN(C(=O)c2ccccc2F)CC1 |  | active: 28.2 µM
3 | Cc1ccccc1Cc1noc(-c2nc(-c3ccccc3F)no2)n1 |  | inconclusive: 15.8 µM [inhibitor, full curve]
4 | Cc1cccc(CNC(=O)c2cc3c(=O)[nH]c(C)cn3n2)c1 |  | inconclusive: 44.7 µM [inhibitor, partial curve]
5 | COc1ccc(S(=O)(=O)N[C@H]2C[C@@H](c3nc(-c4ccc(C)cc4)no3)N(C)C2)cc1 |  | active: 25.1 µM
6 | COc1cc(OC)cc(C(=O)NC2CCCN(c3cc(-c4ccc(F)cc4)[nH]n3)C2)c1 (stereo not given) |  | inconclusive: 7.94 µM [inhibitor, full curve]
7 | Cc1ccsc1CNC(=O)c1cccc(C#CC(C)(C)O)c1 |  | inconclusive: 35.5 µM [inhibitor, full curve, poor fit]
8 | CC1CCC(NC(=O)C2CCN(C(=O)c3ncn4c3COC(c3ccccc3)C4)CC2)CC1 (stereo not given) |  | active: 2.82 µM
9 | Cc1ccc2oc([C@H]3CCN(Cc4ccc(C(=O)O)cc4)C3)nc2c1 |  | active: 70.8 µM
10 | O=C(NCCC1=CCCCC1)c1noc(-c2ccc[nH]c2=O)n1 |  | inconclusive: 44.7 µM [inhibitor, partial curve, poor fit]
11 | CCOC(=O)N1CCC(N(C)CC2CCN(CCc3ccc(F)cc3)CC2)CC1 | inactive: -8.77% | 
12 | CCC(=O)NCCC1CCN(C(=O)Nc2cc(F)cc(F)c2)CC1 |  | inconclusive: 50.1 µM [inhibitor, partial curve, poor fit]
13 | COc1ccc(NC(=O)N2Cc3[nH]cnc3C[C@H]2c2nc(-c3ccc(C)cc3)no2)cc1 |  | active: 63.1 µM
14 | Cc1ccc(C2Cn3nnc(C(=O)N4CCC(C(=O)NC5CC5)CC4)c3CO2)cc1 (stereo not given) |  | active: 10 µM
15 | CCOc1ccccc1CNC(=O)c1noc(-c2ccc(C)cc2)n1 |  | inconclusive: 39.8 µM [inhibitor, partial curve]
16 | O=c1c2nc(-c3ccoc3)ccc2ncn1-c1ccccc1 |  | inconclusive: 112 µM [inhibitor, partial curve]
17 | COc1ccc(CN2CCc3nc(N(C)C)[nH]c(=O)c3CC2)cc1OC | inactive: 2.27% | 
18 | COc1cccc(CN2CCc3nc(N4CCOCC4)[nH]c(=O)c3CC2)c1OC | inactive: 1.02% | 
19 | CN(Cc1ccccn1)C1CCCc2ccccc21 (stereo not given) | inactive: -2.75% [at 172 µM] | 
20 | Cc1ccc(CN2CCC[C@H]2c2nc(-c3ccc(OC4CCCCC4)nc3)no2)cc1 |  | inconclusive: 112 µM [inhibitor, partial curve]
21 | N#Cc1ccc(C(=O)NC2CCc3n[nH]c(=O)n3CC2)cc1 (stereo not given) | inactive: 8.5% | 
22 | CCc1nc2c(c(-c3ccc(O)cc3)n1)CCN(Cc1ccc(OC)cc1)CC2 | inactive: 13% | 
23 | CCOc1ccc(C2Cn3nnc(-c4nc(-c5ccsc5)no4)c3CO2)cc1 (stereo not given) |  | inconclusive: 39.8 µM [inhibitor, partial curve]
24 | N#Cc1ccc(OCC2CN(Cc3c[nH]c4ccccc34)C(=O)c3c(ccnc3-c3ccc(OCC(=O)O)cc3)O2)cc1 (stereo not given) |  | inconclusive: 79.4 µM [inhibitor, single point]

Row | SMILES | activity change, negative = inhibition | Potency
25 | CC(C)(Oc1nn(CCOc2ccccc2)c2ccccc12)C(=O)NCc1cnccn1 | inactive: 4.14% [at 172 µM] | 
26 | Cc1nn2c(c1-c1ccccc1Oc1ccccc1)N(Cc1ccccc1O)CCC2 | inactive: -6.12% [at 172 µM] | 
27 | O=C(c1ccsc1)N1CCCn2cc(-c3ccccc3F)nc21 |  | active: 35.5 µM
28 | Cn1nccc1C(=O)N1CCCCCCNC(=O)[C@@H]2CCCC[C@@H]21 | inactive: -8.42% | 
29 | COc1cccc(Nc2csc(CN3CCCC(C)(NC(C)=O)C3)c2)c1 (stereo not given) |  | inconclusive: 35.5 µM [inhibitor, partial curve]
30 | CCn1cnnc1CC1CCN(C(=O)c2ccc(OC)cc2OC)C1 (stereo not given) |  | inconclusive: 50.1 µM [inhibitor, partial curve]
31 | O=C(CSc1ccccc1)N1CCc2nc3cc(-c4ccccc4)[nH]n3c(=O)c2C1 |  | inconclusive: 44.7 µM [inhibitor, partial curve, poor fit]
32 | CC(NC(=O)c1noc(-c2ccc3c(c2)OCO3)n1)c1ccccc1 (stereo not given) |  | inconclusive: 39.8 µM [inhibitor, partial curve]
33 | c1csc(CN2CCC(Oc3ccccc3-c3nc(-c4cnccn4)no3)C2)c1 (stereo not given) | inactive: 0% | 
34 | CN(C)c1cccc(C(=O)NC2CCN(c3cc(-c4ccccc4)[nH]n3)CC2)c1 |  | active: 39.8 µM
35 | O=C(Nc1ccc(F)cc1)c1cccn2nccc12 |  | inconclusive: 63.1 µM [inhibitor, partial curve]
36 | COc1cc(F)cc(-c2ncc3c(n2)OCCN(C)C3=O)c1 |  | inconclusive: 15.8 µM [inhibitor, full curve, poor fit]
37 | O=C(NC[C@H]1OC[C@@H](NCc2ccccc2O)[C@@H]1O)c1ccc(F)cc1 | inactive: -0.703% [at 172 µM] | 
38 | CSCC(=O)N[C@H]1CCN2C(=O)N(c3ccc(C(C)C)cc3)C(=O)[C@@H]2C1 |  | active: 31.6 µM
39 | CC(=O)NC[C@H]1Cn2cc(-c3ccccc3)nc2CO1 |  | inconclusive: 112 µM [inhibitor, partial curve, poor fit]
40 | C[C@@H]1C(=O)O[C@H]2[C@H]1CC[C@@]1(C)Cc3sc(NC(=O)CS(=O)(=O)c4ccccc4)nc3[C@@H](C)[C@H]21 |  | inconclusive: 31.6 µM [inhibitor, full curve]
41 | CC1=C[C@@H](CNCCN2CCNC2=O)[C@H](C(C)C)C[C@H]1Cc1nnc(-c2cccnc2)o1 | inactive: 3.92% | 
42 | COCCc1noc(C2CN(C(=O)Nc3ccc(C)c(C)c3)C2)n1 |  | inconclusive: 44.7 µM [inhibitor, partial curve]
43 | Fc1cc(Nc2ncc(-c3cccnc3)c3c2OCC3)cc(N2CCOCC2)c1 |  | inconclusive: 35.5 µM [inhibitor, partial curve]
44 | COc1ccc(NC(=O)c2ccc3c(c2)NC(C)(COCC2CC2)CO3)cc1OC (stereo not given) |  | inconclusive: 79.4 µM [inhibitor, partial curve]
45 | Cn1nccc1C(=O)N1CCCC(Cc2nc(C3CCOCC3)no2)C1 (stereo not given) | inactive: -0.621% | 
46 | CC1(C(=O)NCc2cccc(F)c2)COCc2cnc(Nc3ccccc3)nc21 (stereo not given) | inactive: -20.4% [at 172 µM] | 
47 | Cc1nc(N2CCC(NC(=O)c3cccc4[nH]ccc34)CC2)cc(C(F)(F)F)n1 | inactive: 2.41% | 
48 | CC1(C)[C@H](Cc2cc(-c3ccccc3)on2)C[C@@H]1NS(C)(=O)=O |  | inconclusive: 112 µM [inhibitor, partial curve, poor fit]

Row | SMILES | activity change, negative = inhibition | Potency
49 | C[C@@H]1C(=O)O[C@H]2[C@H]1CC[C@@]1(C)Cc3sc(NC(=O)CN(C)C)nc3[C@@H](C)[C@H]21 |  | active: 3.16 µM
50 | O=C(Nc1cccc(-c2ccc(N3CCOCC3)nn2)c1)Nc1ccc2c(c1)CCC2 |  | active: 0.891 µM
51 | c1cc(-c2noc(C3CC3)n2)ccc1OC1CNC1 |  | inconclusive: 50.1 µM [inhibitor, partial curve]
52 | CN(C)c1cc(=O)c2ccnc(-c3ccc(N4CCOCC4)cc3)c2o1 |  | active: 44.7 µM
53 | COc1ccc2ccc(OCc3nc(C(=O)NC(C)c4n[nH]c(C)n4)co3)cc2c1 (stereo not given) |  | inconclusive: 44.7 µM [inhibitor, partial curve]
54 | COc1ccccc1C(=O)Nc1cccc(-c2nnc3n2CCCC3)c1 |  | inconclusive: 50.1 µM [inhibitor, partial curve]
55 | Cc1ccc(CN2CCC([C@@H]3CNC[C@H]3CO)CC2)s1 | inactive: -7.86% | 
56 | O[C@@H]1C[C@@H](c2nc(-c3ccc4c(c3)OCO4)no2)N(Cc2cc3ccccc3o2)C1 |  | inconclusive: 56.2 µM [inhibitor, partial curve]
57 | CN(C)C(=O)c1ccc(-c2cc(NC3CCCC3)nc3[nH]ccc23)o1 |  | inconclusive: 79.4 µM [inhibitor, partial curve, poor fit]
58 | CC#CC(=O)N1CCCC(C(=O)Nc2ccc(-c3cccc(OC)c3)cc2)C1 (stereo not given) |  | inconclusive: 39.8 µM [inhibitor, partial curve]
59 | CNC(=O)CCn1ncc2cc(OCc3ccccc3-c3cnc(OC)nc3)ccc21 |  | inconclusive: 100 µM [inhibitor, single point]
60 | Cc1cc(-c2cccc(COc3ccc4c(cnn4CC[S+](C)(=O)[O-])c3)c2)ccn1 |  | active: 12.6 µM
61 | COc1ccc(NC(=O)C2CCN(C(=O)c3ncn4c3COC(c3ccccc3)C4)CC2)cc1 (stereo not given) |  | active: 8.91 µM
62 | O=C(NCc1ccccc1)c1ccc(-c2cccc3c2CCNC3)o1 |  | inconclusive: 89.1 µM [inhibitor, single point]
63 | COc1ccc(-c2cc(N3CCCC(NC(=O)c4ccc(F)cc4Cl)C3)n[nH]2)cc1 (stereo not given) |  | inconclusive: 31.6 µM [inhibitor, full curve]
64 | CC(C)c1ccc(NC(=O)c2ccc(CN3C(=O)NC4(CCOCC4)C3=O)cc2)cc1 |  | active: 2 µM
65 | CC(C)OCCCNC(=O)C1c2ccccc2C(=O)N(Cc2ccccc2)C12CCCC2 (stereo not given) | inactive: -9.05% | 
66 | CC(=O)Nc1ccc(CN2CCC3(CC(Cc4ccccc4)=NO3)C2)cc1 (stereo not given) | inactive: 0.173% | 
67 | O=C(NC1CCCCCC1)c1ccc2c(c1)CC(=O)N2Cc1cccc(F)c1 |  | inconclusive: 44.7 µM [inhibitor, partial curve]
68 | Cc1ccc(S(=O)(=O)Nc2ccc3c(c2)CN(CCc2ccc(F)cc2)C(=O)C(C)O3)cc1F (stereo not given) | inactive: -4.79% | 
69 | Cc1ccccc1CN1CCc2nc(C(=O)N3CCOCC3)oc2CC1 |  | inconclusive: 112 µM [inhibitor, single point]
70 | O=C(NCc1ccnc2[nH]ccc12)c1cccc(Br)c1 |  | inconclusive: 89.1 µM [inhibitor, partial curve, poor fit]
